Experimental data from patent publication US9872922B2, “Anti-EFNA4 antibody-drug conjugates” (PFIZER, INC., priority 2013, dated 2018).

Experiments:
Ephrin-A5 (EFNA5) = molecular target: T1, Ephrin-A5 (EFNA5) (Homo sapiens, UniProt P52803); test: Direct ELISA binding specificity, Ephrin-A5; conditions: biotin-labeled antibody
T1 construct: purchased R&D
T1 sequence (P52803 21-203): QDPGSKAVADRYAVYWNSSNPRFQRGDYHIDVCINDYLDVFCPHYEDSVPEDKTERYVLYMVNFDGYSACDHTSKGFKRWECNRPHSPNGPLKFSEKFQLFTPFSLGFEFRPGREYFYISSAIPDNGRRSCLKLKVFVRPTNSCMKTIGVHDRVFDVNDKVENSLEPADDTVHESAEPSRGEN
Experimental: Further properties were determined using ELISA to analyze the binding specificity of anti-EFNA4 antibodies huE22 and huE47 to Ephrin-A4 (EFNA4) along with homologous family members Ephrin-A1 (EFNA1) and Ephrin-A3 (EFNA3). Antibody binding was determined by direct ELISA with Ephrin-A1-His, Ephrin-A3-huFc, Ephrin-A4-huFc and Ephrin-A5-huFc (all from R&D) coated on BioOne Microlon (Greiner) plates in PBS overnight at 4° C. Biotin-labeled huE22 and huE47 were incubated on the plate for 2.5 hours at room temperature and Streptavidin HRP was used to develop signal from biotin labeled antibody in the absence of interfering human IgG signal.

cynomolgus monkey EFNA4 = test: SPR (BIAcore 2000) binding constants, cynomolgus monkey EFNA4; conditions: Cynomolgus monkey antigen
Experimental: The binding constants of huE22 for human and cynomolgus monkey EFNA4 proteins were determined by surface plasmon resonance (SPR) using BIAcore 2000 (GE Healthcare) using recombinant EFNA4 extracellular domain that was fused to a histidine tag to facilitate purification. The results indicated high affinity of huE22 for both human and cynomolgus monkey EFNA4, see Table 12. The cynomolgus monkey EFNA4 protein sequence is highly homologous to human EFNA4 protein sequence, with 98% identity overall and 98% identity in the extracellular domain. […] The lack of huE22 binding to rat or mouse EFNA4 is likely explained by a non-conserved residue in the rat and mouse EFNA4 sequences within the defined huE22 epitope.

144580 = test: In vivo efficacy, 144580 breast tumor model (dosed intravenously); design: species or system mice
[1] = tested on: Ovarian-55 (OV55) ovarian cancer PDX; test: In vivo efficacy, OV55 ovarian cancer PDX; design: species or system NOD/SCID mice (human tumor PDX)
[2] = tested on: BR22 tumor-initiating cells; test: Tumor-initiating cell (TIC) frequency by limit dilution analysis, BR22; type: in vivo, mice (human tumor PDX); conditions: for # Animals with tumors: 21 weeks post-injection
Experimental: The day of harvest serial transplantation was chosen based on when tumors were starting to regress following huE22-AcBut-CM exposure. Tumors were dissociated and stained with anti-human ESA, anti-mouse CD45, and anti-mouse H2Kd antibodies. Three tumors per treatment group were pooled, and live human tumor cells (ESA+) were sorted by flow cytometry.
Tumors in recipient mice were measured weekly and at 21 weeks post-injection, tumors that exceeded 200 mm^3 in recipient mice were scored as positive. Using Poisson distribution statistics, via L-Calc software (Stemcell Technologies, Vancouver, BC), injected cell doses of recipients with and without tumors at 21 weeks post-transplant were used to calculate the frequencies of TIC in each population.

[3] = In vitro stability in rat plasma (ELISA total ADC / total antibody); type: in vitro ADME, Sprague Dawley rat; conditions: 37° C.; for % total huE22 Ab remaining: Rat plasma, mean; for % huE22-AcBut-CM remaining: rat plasma, mean (n=3), total ADC by ELISA
Experimental: Quantitation of the total ADC and total antibody, in plasma samples from pharmacokinetic studies in mice dosed with the ADC was determined using an enzyme-linked immunosorbent assay (ELISA) method. ELISA and liquid chromatography tandem mass spectrometry (LC-MS/MS) methods were also used to quantitate total ADC, total antibody and unconjugated payload from the exploratory toxicology studies in rat and monkey and in the in vitro plasma stability study with the ADC.
Total antibody concentrations could not be determined for the total ADC incubations in human plasma due to ELISA limitations of detection for a human IgG, in human plasma containing human IgG. […] NC=Not calculated; SD=Standard deviation.

BR25 = test: In vivo efficacy, BR25 TNBC Claudin-low tumor model; design: species or system mice; conditions: 0.27 mg/kg

B1: huE22 (antibody)
heavy: QVQLVQSGAEVKKPGASVKVSCKASGYTFTGYYIHWVRQAPGQGLEWMGWIYPGNFNTKYNERFKGRVTMTTDTSTSTAYMELRSLRSDDTAVYYCAREDGSPYYAMDYWGQGTSVTVSS[human IgG1 constant region omitted here]
VL: DIVMTQTPLSLSVTPGQPASISCRSSQSLVHSNGNTFLYWYLQKPGQSPQLLIYRVSNRFSGVPDRFSGSGSGTDFTLKISRVEAEDVGVYYCFQATHVPWTFGGGTKVEIK
Ephrin-A5 (EFNA5)
  binding to Ephrin-A5 (EFNA5): but not to EFNA1, EFNA3 or EFNA5
Cynomolgus monkey EFNA4
  koff: 7.8E−03 s − 1
  kon: 3.8E+06 M − 1s − 1

B2: huE22-AcBut-CM: huE22 conjugated via lysine residues to AcBut-N-acetyl-γ-calicheamicin dimethyl hydrazide (AcBut-CM) (conjugate)
heavy: QVQLVQSGAEVKKPGASVKVSCKASGYTFTGYYIHWVRQAPGQGLEWMGWIYPGNFNTKYNERFKGRVTMTTDTSTSTAYMELRSLRSDDTAVYYCAREDGSPYYAMDYWGQGTSVTVSS[human IgG1 constant region omitted here]
light: DIVMTQTPLSLSVTPGQPASISCRSSQSLVHSNGNTFLYWYLQKPGQSPQLLIYRVSNRFSGVPDRFSGSGSGTDFTLKISRVEAEDVGVYYCFQATHVPWTFGGGTKVEIKRTVAAPSVFIFPPSDEQLKSGTASVVCLLNNFYPREAKVQWKVDNALQSGNSQESVTEQDSKDSTYSLSSTLTLSKADYEKHKVYACEVTHQGLSSPVTKSFNRGEC
144580; 0.03 mg/kg
  % TGI: 11% TGI
144580; 0.1 mg/kg
  % TGI: 55% TGI
144580; 0.3 mg/kg
  Regression (TTP, Days): Regression (53) Days
[1]; 0.018 mg/kg, OV55 PDX
  Regression (TTP, Days) or % TGI: No activity
[1]; 0.09 mg/kg, Day 0
  mean tumor volume: 208 ± 24
[1]; 0.09 mg/kg, Day 6
  mean tumor volume: 198 ± 33
[1]; 0.09 mg/kg, Day 13
  mean tumor volume: 109 ± 27
[1]; 0.09 mg/kg, Day 20
  mean tumor volume: 63 ± 14
[1]; 0.09 mg/kg, Day 27
  mean tumor volume: 30 ± 9
[1]; 0.09 mg/kg, Day 34
  mean tumor volume: 37 ± 13
[1]; 0.09 mg/kg, Day 42
  mean tumor volume: 94 ± 37
[1]; 0.09 mg/kg, Day 48
  mean tumor volume: 171 ± 62
[1]; 0.09 mg/kg, Day 55
  mean tumor volume: 382 ± 142
[1]; 0.09 mg/kg, Day 62
  mean tumor volume: 579 ± 209
[1]; 0.09 mg/kg, Day 69
  mean tumor volume: 980 ± 405
[1]; 0.09 mg/kg, OV55 PDX
  Regression (TTP, Days): Regression (42) Days
[1]; 0.27 mg/kg, Day 0
  mean tumor volume: 204 ± 28
[1]; 0.27 mg/kg, Day 6
  mean tumor volume: 152 ± 18
[1]; 0.27 mg/kg, Day 13
  mean tumor volume: 66 ± 13
[1]; 0.27 mg/kg, Day 20
  mean tumor volume: 35 ± 9
[1]; 0.27 mg/kg, Day 27
  mean tumor volume: 5 ± 4
[1]; 0.27 mg/kg, Day 34
  mean tumor volume: 0 ± 0
[1]; 0.27 mg/kg, Day 42
  mean tumor volume: 0 ± 0
[1]; 0.27 mg/kg, Day 48
  mean tumor volume: 0 ± 0
[1]; 0.27 mg/kg, Day 55
  mean tumor volume: 0 ± 0
[1]; 0.27 mg/kg, Day 69
  mean tumor volume: 7 ± 7
[1]; 0.27 mg/kg, Day 76
  mean tumor volume: 11 ± 11
[1]; 0.27 mg/kg, Day 83
  mean tumor volume: 24 ± 24
[1]; 0.27 mg/kg, Day 90
  mean tumor volume: 35 ± 35
[1]; 0.27 mg/kg, Day 97
  mean tumor volume: 78 ± 78
[1]; 0.27 mg/kg, Day 105
  mean tumor volume: 107 ± 107
[1]; 0.27 mg/kg, Day 108
  mean tumor volume: 99 ± 99
[1]; 0.27 mg/kg, Day 121
  mean tumor volume: 157 ± 157
[1]; 0.27 mg/kg, Day 125
  mean tumor volume: 253 ± 253
[1]; 0.27 mg/kg, Day 132
  mean tumor volume: 253 ± 253
[1]; 0.27 mg/kg, OV55 PDX
  Regression (TTP, Days): Regression (76) Days
[1]; 0.036 dose level
  effect on tumor growth: some delay in tumor growth
[1]; 0.27 and 0.09 mg/kg dose levels
  tumor regression: Tumor regressions were achieved
[2]; 18 cells implanted per animal, 7 animals in group
  # Animals with tumors: 0
[2]; 90 cells implanted per animal, 8 animals in group
  # Animals with tumors: 6
[2]; 390 cells implanted per animal, 8 animals in group
  # Animals with tumors: 7
[2]; p=0.019
  reduction of number of TIC vs control-AcBut-CM treated: about 3 fold
[2]; tumors harvested day 12 post-initial treatment, scored 21 weeks post-injection
  TIC frequency (1 TIC in x cells): 147 cells
[3]; 1 ug/mL, 0 hours
  % total huE22 Ab remaining: 100%
  % huE22-AcBut-CM remaining: 100%
[3]; 1 ug/mL, 8 hours
  % total huE22 Ab remaining: 76.8%
  % huE22-AcBut-CM remaining: 95.2%
[3]; 1 ug/mL, 24 hours
  % total huE22 Ab remaining: 89.0%
  % huE22-AcBut-CM remaining: 93.0%
[3]; 1 ug/mL, 48 hours
  % total huE22 Ab remaining: 81.4%
  % huE22-AcBut-CM remaining: 86.2%
[3]; 1 ug/mL, 72 hours
  % total huE22 Ab remaining: 79.4%
  % huE22-AcBut-CM remaining: 81.0%
[3]; 1 ug/mL, 168 hours
  % total huE22 Ab remaining: 64.6%
  % huE22-AcBut-CM remaining: 69.0%
[3]; 50 ug/mL, 0 hours
  % total huE22 Ab remaining: 100%
  % huE22-AcBut-CM remaining: 100%
[3]; 50 ug/mL, 8 hours
  % total huE22 Ab remaining: 98.1%
  % huE22-AcBut-CM remaining: 94.7%
[3]; 50 ug/mL, 24 hours
  % total huE22 Ab remaining: 115%
  % huE22-AcBut-CM remaining: 97.3%
[3]; 50 ug/mL, 48 hours
  % total huE22 Ab remaining: 111%
  % huE22-AcBut-CM remaining: 107.6%
[3]; 50 ug/mL, 72 hours
  % total huE22 Ab remaining: 87.1%
  % huE22-AcBut-CM remaining: 96.9%
[3]; 50 ug/mL, 168 hours
  % total huE22 Ab remaining: 83.3%
  % huE22-AcBut-CM remaining: 70.1%
BR25
  % TGI: 27% TGI
